Laboratory results taken from the RNAGym collection of RNA variant scans (doi:10.1093/nar/gkz1192).
The source gives no read counts; variants with many changes may rest on few reads.

B1: CPEB3 Ribozyme (parent)
chain: UAACAGGGGGCCACAGCAGAAGCGUUCACGUCGCAGCCCCUGUCAGAUUCUGGUGAAUCUGCGAAUUCUGCUGUAUAUCUC

Variants of: B1
Assay: self-cleavage, relative activity (ratio to wild type); higher = more cleavage; in vitro, sequencing
Procedure, shortened: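 Libraries of CPEB3 self-cleaving ribozyme mutants came from rounds of error-prone PCR and carried barcodes, which DNA sequencing matched to variants. In vitro transcription used T7 RNA polymerase at 37°C for 5 hours, with a further 15 min in DNase I before EDTA stopped the reaction; the ribozymes cleaved during both steps. The RNA was reverse transcribed with template switching and sequenced on Illumina. Relative activity is the cleaved/total read fraction of a variant divided by that of the unmutated ribozyme, averaged over three batches with at least 5 reads.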

Variant	self-cleavage
A5G A13U U25A G36A A64U	0.24
A5G A13U U49C	0.33
A5G A15C A18G A21G U26C U51A U78G	0.63
A5G A15C A35G U41C G73A	1.08
A5G A15G A18C A28G A75G	0
A5G A15G A18G A28U A57G	0.43
A5G A15G A18G A75G U78C	0.14
A5G A15G A20U A47U	0.41
A5G A15G A28G G55U A56U U69C	0.34
A5G A15G A35U G61C U69C U74C A75G	0.16
A5G A15G A45G	0.46
A5G A15G A45G U48C U49C	0.17
A5G A15G C37U G55C A75U	0.19
A5G A15G C37U U41A G53U	0.52
A5G A15G C38U A64U	0.08
A5G A15G C39A A47G U60A U66C A77U	0.19
A5G A15G G16A U31C U43A	0.12
A5G A15G G53U	0.55
A5G A15G U26C C38A A47G U69C U78C	0.07
A5G A15G U49C U60C	0.2
A5G A15G U51C	0.63
A5G A15U A18G	0.23
A5G A15U A20G U78C	0.5
A5G A15U A20U U80C	0.44

Variant	self-cleavage
A5G A15U A21G	0.22
A5G A15U A28U U60C	0.31
A5G A15U C34A C79A	0.14
A5G A15U U25C U43C C50U	0.1
A5G A15U U41C U48C U60A U72G	0.2
A5G A18C U66C G70U	0.03
A5G A18G A21C U48C	0.53
A5G A18G A28G U66C C68U U69C	0.4
A5G A18G A35G A47G C62A	0.14
A5G A18G A47G	0.66
A5G A18G A47G U49C U78C	0.4
A5G A18G A64G	0.19
A5G A18G G22A U41C U54A A65G U72C	0.05
A5G A18G U51G U54A	0.49
A5G A18G U58C U69C U72A U80C	0.25
A5G A18G U67A U76A	0.35
A5G A18U A45G A65G U76C	0.3
A5G A18U C34U C62G	0.39
A5G A18U C39U U60A	0.29
A5G A18U C40U A56U	0.11
A5G A18U G19A U43C U58C	0.08
A5G A18U G42C A57U	0.17
A5G A18U G46A U49C	0.08
A5G A18U U25C C40U U41A	0.07

Variant	self-cleavage
A5G A18U U25C U41A U74C	0.67
A5G A18U U26A U31C U66A U67G U76C	0.12
A5G A18U U26C U74C	0.56
A5G A18U U41C A56G U69C	0.16
A5G A18U U51C	0.25
A5G A18U U58C A64U U76A A77U	0.1
A5G A18U U80C	0.11
A5G A20G A21G U60C	0.16
A5G A20G A28U G42A	0.05
A5G A20G A45C A56G U72C U74C U76A	0.11
A5G A20G C32U U54C	0.09
A5G A20G U26C A64G U74C	0.09
A5G A20G U41A U78C	0.36
A5G A20U A21G C40G U67A U78C U80C	0.06
A5G A20U A21G G46U A56G U67C U69G	0.17
A5G A20U A45U	0.44
A5G A20U A57G U78A	0.81
A5G A20U C27U	0.23
A5G A20U U26A U51A	0.25
A5G A20U U26C	0.45
A5G A20U U31C U58C U78G	0.27
A5G A20U U72A	0.46
A5G A21C A45G A65G	0.14
A5G A21C G55A U72C	0.38

Variant	self-cleavage
A5G A21G A28G C29G C40A A64G A65U	0.04
A5G A21G A35G	1.03
A5G A21G A35G A45G A47G U67A	0.13
A5G A21G A35G U48C U78C	0.46
A5G A21G A56G U66C U80C	0.11
A5G A21G U25C U60C U69C	0.13
A5G A21G U43C A64G	0.1
A5G A21U C32A A35U U51A C68A C81U	0.02
A5G A28C A35C G46U	0.31
A5G A28C U48C U78C	0.1
A5G A28C U49C U60A U78C	0.09
A5G A28G A35G A45G U72C U74A	0.66
A5G A28G A35G G52A	0.96
A5G A28G A56G A65G U66C C68A U78C	0.05
A5G A28G A65G	0.3
A5G A28G C39U C44U A77G	0.09
A5G A28G C44A G61A	0.41
A5G A28G C59G U60C C62U	0.07
A5G A28G G30A U41A C59A U69C	0.06
A5G A28G U31C A56U U60C	0.24
A5G A28G U49C	0.22
A5G A28G U72C A75G	0.55
A5G A28U A35G U41C U48A A65U	0.13
A5G A28U A35G U43A U49C	0.3

Variant	self-cleavage
A5G A28U U43C	0.49
A5G A35C U41C A56U	0.52
A5G A35G A47G U67G	0.79
A5G A35G G70U	0.49
A5G A35G U41C A75U	1.21
A5G A35G U60A G63U U72C	0.86
A5G A35G U66C U74C U76A	1.15
A5G A35G U76C	1.21
A5G A35U A65U U66A	0.09
A5G A35U C44U U66C	0.21
A5G A45G A47U U60A A77G	0.2
A5G A45G G63A	0.41
A5G A45G U58C C62U	0.07
A5G A45G U67C	0.46
A5G A45U A65G U78C	0.14
A5G A45U U54C U72A U76C	0.21
A5G A45U U66C	0.2
A5G A47G U54A A57G A77G	0.33
A5G A47G U58A U72C U78C	0.28
A5G A47G U66C	0.4
A5G A47U U54C U72G A75G	0.08
A5G A56G A75G	0.19
A5G A56G U66C	0.23
A5G A56G U72A	0.34

Variant	self-cleavage
A5G A56U A57G	0.14
A5G A57G U76C	0.72
A5G A64G U72A	0.24
A5G A65G U80C	0.1
A5G C11A U48C U54C	0.49
A5G C11G A13U U49G U60C U78C U80C	0.08
A5G C11G U60A A64U	0.08
A5G C11U A15U U25A U26C U51C A57G	0.45
A5G C11U A20U U69A	0.25
A5G C11U A45G U54A A75C	0.46
A5G C11U A56G	0.14
A5G C12A A15G U58C	0
A5G C12A A21U A47U	0.26
A5G C12A A28U C32U U72A	0.07
A5G C12A A35U U43C U51C U80A	0.46
A5G C12A G36A U67A U72C U76C	0.08
A5G C12A U26A U49A	0.44
A5G C12A U41A A64G U67C A75U U78C	0.1
A5G C12U A13G A18G G73C	0.53
A5G C12U A21G U31A A64G U76C	0.11
A5G C12U A28G A45U	0.37
A5G C12U A45U A47G A65G	0.14
A5G C12U A47G	0.86
A5G C12U U25G U41C A47U A65U A77G	0.03

Variant	self-cleavage
A5G C14A A18G U54G U60C	0.1
A5G C14A A21U U26C A57G	0.08
A5G C14U A15G A45G U51C U54C	0.47
A5G C14U G24A A65G	0.07
A5G C14U G33U C39U	0.03
A5G C14U U43C C79A	0.56
A5G C14U U54C	0.76
A5G C17A A65U	0.28
A5G C17A U25G A57U	0.31
A5G C17A U26C G55A U66C U76C	0.21
A5G C17G U26C A28G A77G U78C	0.12
A5G C23A U25C A57G C62U	0.04
A5G C23A U41C	0.44
A5G C23G A28G U31A C40U U51C	0.06
A5G C23G A45G U60G U72C C81U	0.11
A5G C23G C44U A47G	0.53
A5G C23G U25C A35G A64G A65U U69C	0.09
A5G C23U A28G A35U A64G G73A U76C	0.03
A5G C23U C40A U78C	0.31
A5G C23U U54C	0.28
A5G C27A A64G U67C	0.23
A5G C29A A45G	0.15
A5G C29G U72C	0.4
